Laboratory results taken from the RNAGym collection of RNA variant scans (doi:10.7554/elife.90254).
Read counts are not given, so values of variants with three or more changes are uncertain.

B1: LINE1-mini (parent)
chain: GGCAGAGCUCAACACAGCGUGGCAAAGUGGCUGUGGCUAGACUGCC

Variants of: B1
Assay: self-cleavage, relative activity (ratio to wild type); higher = more cleavage; in vitro, sequencing; the parent is a self-cleaving ribozyme

Variant | self-cleavage
GGCAGAGCCCAACACAGCGAGGCAAAGUGGCUUUGGCUGCACUGCC | 0.03
GGCAGAGCACAACACAGCGUUGCAAAGUGGCUGUGGAUAGACUGCC | 0.11
GUCAGAGAUCAACUCAGCGUGGCAAAGUGGUUGUGGCUAGACUGCC | 0.05
GGCAAAGCUCAACAUAGCGUGGCAAAGUGGCUAUGGCUAGACUGCC | 0.25
GGCAAAGCUUCACACAGCGUGUCAAAGUGGCUGUGGCUAGACUGCC | 0.04
GGCAGAGCUCAACAAAGCGUGUCGAAGUGGCAGUGGCUAGACUGCC | 0
UGCUGAGCUCAACACACCGUGGCAACGUGGCUGUGGCUAGACUGCC | 0.1
GGCAGAGCUCAAAACAUGGUGGCAAAGUGGCUGUGGCUAAACUGCC | 0.18
GGCAGAGCUCAACAUAGCGUUGCAAAGUGGCUGUGCCUAGACUGCC | 0.03
GGCAGAGCUCAACACAGCGUGGCAAAGUGACUGUGGCUAGCCUCCC | 0.05
GGCAGAGCUCAACACAGUGUCGCAAUGUGGCUGUGGCUAGACUGCC | 1.33
GGCAGAGCUCAGCACAGCGUGGUAAAGUGGGCGUGGCUCGACUGCU | 0.01
GGCACAGCACGACACAGCGUGGAAAAGUGGCUGUGGCUAGAGUGCC | 0.01
GGCAGAGCUCAACACAGCGUGCCAAAGCAGCUGUGGCAAGACUGCC | 0.02
GGCAGAGCACAACACUGCGUGGCAUAGUGGAUGUGGCUAGACUGCC | 0.01
GGCAGAGCUCAACACAGCGUAGCAAAGGGGCUGUGGCUAGGCUGCC | 0.2
GGCAGAGCUCAAUACAGCAUGGCAAAGUGACUGUGGCUAGAAUGCC | 0.03
UGCAGAGCUCAACACAGCGUGACAAAGUGGCUGUGGCUAGACUGCA | 0.52
GGCAGAGCUGAACUGAGCGUCGCAAAGUGGCUGUGGCUAGACUGCC | 0.02
GGCAGAGCUCAACACAGCGUGGCAAAGUUGCUGUGGCUCCACUACC | 0.02
GUCACAGCUCAACACCGCGUGGCAAACUGGCUGUGCCUAGACUGCA | 0
GGCAGAACUCAAAACAGCGUGGCAAAUUGGCUGUUGCUAGACUGCC | 0.1
GGCCGAGCUUAACACGGCGUGGGAAAGUGGCUGUGGCUAGACUCCC | 0.04

Variant | self-cleavage
GGCAUAGCUCAACACAACGUAGCAAAGUGACCGUGACGAGUCUGCC | 0.01
GGCUGAGCUUAACACAGCGUGUCAAAGUGGCUGUGGCUAGACUGCC | 0.1
GGUACAGCUGAACACAGCGUGGCAAAGUGGCUGUGGCCAGACUGCC | 0.05
GGGAGAGCUCAACACAGCGUGGCAACGUGGCUGGGGCUAGACUGCC | 0.05
GGCUGAGCUCAACACAGCGUGGCAACGUGGAUGUGACUAGAAUUCC | 0.02
GGCACAGCUCAACAAAACGUGGCAACGUGGCUGUGGCUAGACUGGC | 0.01
GGCAGAGCUCAACACAGCGUGGCAAAGUGGCUGUAGCUAUACGGCC | 0.01
GGCAGAGCUCAACACAGCGUGGCGAAGGGGCUGUGGCUAGACUGUC | 1.08
GGCAGAGCUCAGCACAGCGUGGCCAAGUGGCUGCAGCUAGACUGCC | 0.02
GGCAGAGCUCAACAUAUCGUGGCAAAGUGGCUGUGGCUAGUCUGCC | 0.2
GGCAGAGUUCAACCCAGCGCAGCAAAGUGGCUGUGGCUAGACUGCC | 0.02
GGCAGAGCUCAAAACACCGUGGCAAAGUGGCUGUGUCUAGACUGCC | 0.09
GGCAGAGCUCAUCACAGCGUGGCAUAGCGAUUGUGGCUAGAUUGCG | 0.03
GGCAGAGCUCAACACAGCGUGGCAAAGUGGCUAUUGCUAGACUGCG | 0.02
GGUAAAGCUCAACACAGCGUGGCAAACUGGCUGUGGCUAGACUGAC | 0.1
GGAAGAGCUUAACACAGCGUGGCUAAGUGGCUGUGGCUAGACUGCC | 0.11
GCCAUAACUCAGCACAGCGUGGCAUAGUGUCUGGGGCUAGACUGCC | 0.1
GGCAGAGCUCAACACAGCGUGGCAAAGUGGUUGUGCCUAGACUGAC | 0.03
GGCAGAGCUCAAGACAGCGUGGCGAAGUGGCUGUGACUAGACUCCG | 0.02
GGCUGAGCUCAACACAGCGUGGCAAAGUCGCUGUGGCUCGACUGCC | 0.02
AGCAGAGCUCAGCACAGCGUGGCAAAGUGGCUGUGGCUACACUGCC | 0.09
GGCAGGGCUUAACACAGCAUGGCGAAGUGGCUGUGGCAAGACUGCC | 0
GGCAGAGCUCAACACAGCUUGACAAAGUGUCUGUGGGUAGACUGCC | 0.09

Variant | self-cleavage
GGCAGAGCUCAAAACAGCGUGGCAAAGUGACUGUGGCUAGAUUGCC | 0
GGCAGAGCUCAAUGCGACGUGGUAAAGUGCCACUGGCUAGACUGCC | 0.03
CGCAGAGCUCAACACAGCGUGGCAAAGUGGCUGUCGCUAGACUGUC | 0.04
GGCAGAGCUCAACACAAUGUGGCAAAGUGGCUGUGGCUAGACUUCA | 0.01
GGCCGUGAUCAACACAGCGUGGCAAAGUGGCUGUGGCUAGCCUGCC | 0.17
UGCAUAGCUCAACACAGCGUGGCAACGUGGCUGUGGCUAGACUGCC | 0.04
GGCAGAGAUCAACAUAGCGUGGCAAAGUGGCUGUGGCUUGACUGCC | 0.49
GGCGGAGCUCAACACAUCGUGGCAAAGUGGCUGUGGCGAGACCGCG | 0.04
GGCAGAGCUCAGCAGAUCGUGGCAAAGUGGAUGCGGCUAGACUGCC | 0.13
GGCGGAGCUCAACACAGCUUGGCAAAGUGGCUGUUUCUAGACUGCC | 0.21
GGCAGAGCUCAACACAGCGUGACAAAGUGGCUCCUGCUAGAAUGCC | 0.06
GGCAUACCUCAAUACAGCGCGGGAAAGUGGCUGUCGCUAGACUGCC | 0.14
AGCAGAGCUCAAAAGAGCGUGGCAAAGUGGCUGUGGCUAGACUGCC | 0.07
GGCAGAGCUCAACACAGCGUGGCAAAGUGGCUGUUGCUUAACUGCC | 0.09
GUCAGAGCUCAACGCAGCGUCGCAAAGUGGCUGUGGCUAGACUGCC | 0.08
GGCAGAGCCCAACACAGCUUGGCAAAGCGGCUUUGGCUAGACUGCC | 0.02
GGCAGAGCUUAACACAGCGUGGCAAAGUGGCUGUGGCCAGACGGCC | 0.01
UGUAGAGCUCAACACAGCGUGGCAGAGCGGCUGUGGCUAGACUGCC | 0.19
GACAGAGCUCAACACAGCGUGCGAAAGUGGCUGUGGCUAGACUGCC | 0.8
GGCAGAGCUCAACACAGCGUGGCAAAGUGGCUGUGGCUAGAAUGAU | 0.28
GGCGGAGCUCAACACAGUGUGCCAGACUGGCUGUGUCUAGACUGCC | 0.05
GGCAGACCACAACACAGCGUGGCAAAGUGUCUCUGUCUAAACUGCC | 0.03
GGCAGAGCUCACCACAGCGUGGCAAAACGGCUGUGGCCAGACUGCC | 0

Variant | self-cleavage
GUCAGAGCUCAACACAGCGUGGCAAAGUGGCAGUAGAUAGACUGCC | 0.06
GGCAGAGCACAACAGAGCGUGGCAAAGGGGCUGUGGCUAAACUGCG | 0.07
GGCAGAGCUCAACACAGCGUGGCGAACUGGCUGUUGCUAUACUGCA | 0.11
GGCAGAGCUAAACACAGCGUGGGAAAGUGGCUGUGUCUAGAGUGCC | 0.02
UGCAGAGCGCAACACACAGUGGCAAAUUGGCUGUGGCUAGACUGCC | 0.02
GGUAGAGCUCAACUCAGCGUGGCAAAGUGGCUGUGUCUAGACUGCC | 0.23
GGCAGAGCUCAACACAGCGUGGCAAAAUGGCCGUGGCUGGCCAGCC | 0.05
GGCAGAGCUCAACACAGCCUUGAAAAGUGGCUGUGGCUAGGCGGCC | 0
GGCAGAGCUCAACACAGCGUGGCAAAUUGGCUGUGGCUAGACAGCA | 0.05
GGCAGAGCUUAACACAGCGUUGCAAAGUGGCUGUGGCUAAACUUCC | 0.02
GGCGUAGCUGAACACAUCGUGGCACUGUGGCUGUGGCUAGACUGGC | 0.01
GGCAGAUCUCAGCACAGCGCGUCAAAGUGGCUGUGGCUAGACUGCC | 0.02
GGCAGAUCUCAAUACAGCUUGGCAAAGUGGCUGUGGCUUGACUGCC | 0.04
GGCAGAACUCAACACAGCGAGGCAAAGUGGCUGUGGAUAGACUGCC | 0.02
GGCAGAGCUCAACACAGCGUGAGAAAGUGGUUGUGGCUAGACUGCC | 0.24
GCCAGAGCUCAACACACCCUGGCAAAGUGGCUGUGGCUAUACUGUC | 0.01
GGGAGAACACUACACAGCGUGGGAAAGUGGCUGUGGCUAGACUGUC | 0.03
GGCAGAGCUCAACACACCGUGGCAAAGUGACUGUGGCUAGACUGCU | 0.06
GGCAGAGCUCAACACUGCCUGGCAAAGUGGCUGUGGCUAGCCUGCC | 0
GGCAGAGCUCAACACAUCGUGGUAAAGUUGCUGUGGCUGGAGUGCC | 0.09
UGCAGAGCUCAACAGAGCGUUGCAGAGUGUCUGUGGCUAGACUGCC | 0
CGCAGAGCUCAACACGGCGUGGCAAAGCAGCUGUGGCUGGACUGCC | 0.05
GGCAGAGCUCAACACAGCGGGGCAAAGAGGCUGUGGGUAGACUGCC | 0.01

Variant | self-cleavage
GGCAGAGCUCAUUACAGCAUGGCACAGUGGCUGUGGCUAGACUGCC | 0.07
GGCAGAGCUCAACACAGCCUGUUAAAGUGGAUGUGGCUAGACUGCC | 0.28
GGCUGAGUUCAACACAGCGUGGCAAAGUGGCUCUGGCUAGCCUGCC | 0.01
GGCAGAACUCAACAAAGCGUGACAAAGUGACUGUGGCUAGACUGCC | 0.1
GACAGAGCUCAACACAGCGUGGUAAAGUGGCUGUGGCCAGGCUGCC | 0.22
GGCAGAGGUCAACACAGCGUGGCAGAGUGGCUGUGGCUAGACUUCC | 0
GGCAGAGAUCAACACAGCGUGUCAAAGUGGAUGUCGCUAGACUGCC | 0.06
GGCGGAGCUCAACACAGCGUGGUAAAGUGGCUGUGGAUAGACUGCC | 0.02
GGGAGAGCUUAACACCGCGUGGCAAAGUGCCUGUGGCCAGACUGCC | 0.03
GGCCGAGCUCAACACAGUGUGUAAAAGUGGCUGUGGUUAGACUGCC | 1.07
GGCAGAGCUCAACACGGCGUGGCAAUGUGACUGCGUCUAGACUGCC | 0.03
GGCAGAGCACACCACAGCGUGGCAAAGUGUCCGUGGCUAGACUGCC | 0.02
GGCAGAGCUCAACUCUGCGUGGCAAAGUGGCUGUGGCUAGACAGCC | 0.04
GGCAGAGCUCAACACAGCGAGGCAAGGUAGCUCUGGCUAAACUGGC | 0.09
UGCAGGGCUCAACACAGCGUGGGAAACUGGCUGAGGCUAGACUGCC | 0.01
GGCAGAGCUCAACACAGCGUCGCAAAGUGGCUGUGGAUAGACUGCU | 0.05
GGCAGAGCUCAAAACAGCGUGUCAAAGUCGCUGUGGCUAGACUGCC | 0.1
GGCAGAGCUAAACACAGCGUGGCGAAUUGGCUGUGGCUAGACAGCC | 0.02
GGCAGAGUUCAACACAGCGUGGGAAAGUGGCUGUGGCUAGAGUACC | 0.25
GGCAGAGCUCAACACAGCGUGGCAAAGUGGCUGUGGCCAGAGUGUC | 0.04
